Measurements reported in PubChem BioAssay AID1508624 (National Center for Advancing Translational Sciences (NCATS), 2021).
Hit rate of the full screen: of about 48,000 compounds, about 120 (0.25%) were called active. About 4% were inconclusive and are not listed. Calls come from the whole dose curve; as a rule, active = well fitted activation curve with a large enough effect; inconclusive = small, poorly fitted or top-dose-only effect, or another doubt; inactive = no such curve, though single readings can be large or run the other way. This is one part of the list.

Assay: Primary qHTS for Identification of Small Molecule Activators of Huntingtin-Antisense Promoter Activity; note: nearly all actives have a fitted effect of over 55% in size
Settings: HEK293 HTT-AS promoter firefly luciferase reporter, 24 h; series mostly up to 57.5 µM; activity change, positive = activation: at the top concentration
Method in brief: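 Firefly luciferase readout (Dual-Glo, 10 min RT) after 24 h, 37 °C compound exposure (final up to 57.5 uM) of HEK293 reporter cells cultured 24 h beforehand; PTC124 at 50 uM final as control inhibitor; activity scaled vehicle 0%, zero RLU -100%.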

Activity change, positive = activation, inactive:
Fc1ccc(Nc2c(-c3ccccn3)nc3ccc(Cl)cn23)cc1 -6.55%, O=C(NCCc1ccccc1)c1nn(-c2ccccc2Cl)nc1CO -22.2%, COc1cccc(NC(=O)Cc2csc(COc3cccc(C)c3)n2)c1 -8.04%, CC(C)c1ccc(Cn2ccc3c4c(N)nc(NC5CC5)nc4ccc32)cc1 -26.1%, CCCCC1(COC(=O)CCC(=O)O)C(=O)N(c2ccccc2)N(c2ccccc2)C1=O -3.48%, COCCn1c(C)cc(O)c(C(c2ccc(OC)cc2)N2CCN(c3ccccc3)CC2)c1=O (stereo unspecified) -5.96%, Cc1ccc(C)c(-n2nnc(C(=O)Nc3ccc(Br)cc3)c2C)c1 5.07%, CCOc1ccc(Br)cc1S(=O)(=O)Nc1cccc(-c2ccc(OC)nn2)c1 -30.5%, Cc1ccc(C)c(N2CCN(C(=O)CN3C(=O)COc4ccc(S(=O)(=O)N5CCC(C)CC5)cc43)CC2)c1 -12.8%, COc1ccc(NC(=O)c2c(C)oc3ccc(O)c(CN4CCCCCC4)c23)cc1 -17.9%, Cc1ccc(N2CCN(S(=O)(=O)c3ccc(-n4cnnn4)cc3)CC2)c(C)c1 -11.2%, O=c1[nH]c(=O)n([C@H]2C[C@H](O)[C@@H](CO)O2)cc1Br -3.03%, Cc1[nH]cnc1-c1ccc(Cl)cc1 28.4%, Cc1ccc(Cl)cc1N1CCN(C(=O)c2ccc3c(c2)N(Cc2ccccc2)CCS3)CC1 -12%, COc1ccc(-n2c(=O)c3c4c(sc3n(Cc3ccc(C(C)(C)C)cc3)c2=O)CCC4)c(OC)c1 -27.4%, O=C(CSc1nc(=O)n(Cc2ccco2)c2c1CCC2)NCc1ccc(Cl)cc1 -12.8%, Cc1ccc(NC(=O)CCn2c(=O)c3cccn3c3ccccc32)cc1Cl -26.7%, COc1ccc(N2CC(NC(=O)C(=O)c3c(C)[nH]c4ccccc34)CC2=O)cc1 (stereo unspecified) -13.4%, COc1cc(OC)c(NC(=O)Cn2cnc3sc(C)c(S(=O)(=O)N4CCC(C)CC4)c3c2=O)cc1Cl 19.6%, Cc1cc(C)n(-c2nc3ccccc3nc2Nc2cc(Cl)ccc2C)n1 -1.26%, Cc1cc(C)c2nc(N(Cc3cccnc3)C(=O)Cc3ccccc3)sc2c1 -15.5%, Cc1cc(NC(=O)Nc2nnc(N3CCCCC3)s2)ccc1Br 14%, CCN(Cc1ccccc1)C(=O)Cn1c(=O)n(-c2ccc(Cl)c(Cl)c2)c(=O)c2c(C)c(C(=O)N(C)C)sc21 -7.52%, COc1ccccc1CNC(=O)CSc1nc(=O)[nH]c2c1CCCC2 -9.97%, Cc1cc(C)cc(NC(=O)COCc2cc(-c3ccc4c(c3)OCO4)on2)c1 8.49%, Cc1ccc(-n2ncc3c(Nc4cccc(C(F)(F)F)c4)ncnc32)cc1C 0%, COc1cccc(-c2nc(CS(=O)(=O)CC(=O)NCCc3ccc(Cl)cc3)c(C)o2)c1 -24.4%, CC1CCCCN1C(=O)CSc1c2c(nc3cc(Cl)ccc13)CCCC2 (stereo unspecified) -15.6%, COc1cccc(N2CCN(C(=O)C3CCN(S(=O)(=O)c4cn(C)cn4)CC3)CC2)c1 -0.488%, CCOCCn1c(=O)c2c(nc3n2CCN3c2ccc(C)c(C)c2)n(C)c1=O -3.56%, CC(C)c1ccc(NC(=O)c2cnc3sc(N4CCOCC4)nn3c2=O)cc1 -22%, NS(=O)(=O)c1ccc(NC(=O)c2csnn2)cc1 -2.86%, COc1ccc(NC(=O)CN(C)S(=O)(=O)c2ccc3c(c2)c(=O)n(C)c(=O)n3C)cc1 -13.3%, COc1ccc(-c2nc3ccc(Cl)cn3c2Nc2ccc(C)cc2)cc1 -14.2%, COc1ccc(OCC2c3cc(OC)c(OC)cc3CCN2C(=O)c2c(F)cccc2F)cc1 (stereo unspecified) -18.3%, Cc1ccc(C(=O)NCC(c2ccco2)S(=O)(=O)c2ccc(Cl)cc2)cc1C (stereo unspecified) -9.09%, CCCCNC(=O)c1cn(C)c2ccc(S(=O)(=O)N3CCCC3)cc2c1=O 7.96% [at 11.5 µM, percent change from vehicle, -100% = no light], CCc1ccc(-n2nc(CO)c(C(=O)NCc3cccs3)n2)cc1 15.7%, CC(C)Oc1ccc(CNC(=O)c2ccc(NC(=O)N3CC(C)Sc4ccccc43)cc2)cc1 (stereo unspecified) -18.7%, O=C(/C=C/c1ccccc1)Nc1nc2n(n1)C(c1ccc(F)cc1)C=C(c1ccccc1)N2 (stereo unspecified) -32.9%, CC1CCc2onc(C(=O)N3CCN(c4cccc(Cl)c4)CC3)c2C1 (stereo unspecified) -31.5%, Cc1cc(Br)cc2c1N(Cc1ccccc1OC(C)C)C(=O)C2=O -57.6%, CCOC(=O)CNC(=O)c1cc2c(=O)n3cccc(C)c3nc2n1C -8.34%, CC(=O)CC/C=C(\C)CC/C=C(\C)CC/C=C(\C)CCC=C(C)C -1.24%, CCCCNc1c(C(=O)OCC)c(C)nc2c1cnn2CC -30.5%, COc1ccc(CCNC(=O)c2cc(=O)c3ccc(C)cc3o2)cc1OC 8.87% [at 11.5 µM, percent change from vehicle, -100% = no light], CCCCCn1c(=O)[nH]c2cc(C(=O)NC(C)CC)ccc2c1=O (stereo unspecified) -9.42%, COc1ccc(C(=O)Nc2ccc3oc(-c4cccnc4)nc3c2)cc1OC -29.6%, COCCn1c(=O)[nH]c2cc(C(=O)Nc3ccc(OC)cc3)ccc2c1=O -17.5%, Cc1ccc2c(c1)cc(C(=O)NCc1ccccc1C)n2C -19.2%, CCc1cnc2c(c1SCC(=O)Nc1ccc(C(=O)OC)cc1)c(=O)n(C)c(=O)n2C -6.77%, CC(C)Oc1ccc(CNC(=O)C2CCN(Cc3cc4ccccc4n3Cc3ccccc3)CC2)cc1 -27.2%, CC(C)(C)c1ccc(OCCOCCn2c(-c3ccc(Cl)cc3)nc3ccccc3c2=O)cc1 3.26%, O=C(COC(=O)c1cccc(NC(=O)c2ccc(Br)cc2)c1)c1ccc(Cl)cc1 -39.3%, CCn1c2ccccc2c2cc(NC(=O)COc3cc(C)ccc3C)ccc21 -5.03%, Cc1cccc(Cn2c(COc3ccccc3)nc3ccccc32)c1 -13%, Cc1nn(C)c(C)c1CCNC(=O)Nc1ccccc1C(F)(F)F -14%, COc1ccc(N2CC(NC(=O)/C=C\c3ccccc3)CC2=O)cc1OC (stereo unspecified) -1.48%, CCN(CC)c1nn2c(=O)c(C(=O)NCc3ccc(N(C)C)cc3)cnc2s1 0.273%, CCC(=O)N1CCc2cc(S(=O)(=O)NC(C(=O)NCCc3cccc(C)c3)C(C)C)ccc21 (stereo unspecified) 4.46%, CN(Cc1ccco1)S(=O)(=O)c1nnc(NC(=O)c2ccccc2Cl)s1 -6.52%, O=C(NCc1cccs1)c1ccc(CSc2nc3ccncc3n2Cc2ccccc2F)cc1 11.7%, CC1CCCN(CCCNC(=O)c2cc3c(Cl)nc4ccccc4c3s2)C1 (stereo unspecified) -32.5%, COc1ccc(C(=O)CCC(=O)Nc2ccc(C)c(Cl)c2)cc1 4.75%, COc1cc(Cl)c(C)cc1Nc1nc2ccccc2n2cnnc12 -15.3%, COc1ccccc1CNC(=O)C1CCN(S(=O)(=O)c2cn(C)cn2)CC1 -9.24%, O=C(NCCc1csc(-c2ccc(F)cc2)n1)c1cccc(F)c1 -28.5%, Cc1ccc(C2c3[nH]c4ccccc4c3CCN2C(=O)CSCc2ccc(F)cc2)cc1 (stereo unspecified) -26.8%, CCc1ccccc1N(C)C(=O)c1sc2nc3n(c(=O)c2c1C)CCCCC3 -0.509%, CCc1cccc(C)c1NC(=O)c1cnn(-c2ccc(OC)cc2)c1C1CCN(C(=O)OC(C)(C)C)CC1 -35.1%, COc1ccc(NC(=O)c2nc(-c3ccc(C)cc3)n3c2CCCCC3)c(OC)c1 -4.56%, CCOCCc1nn2c(=O)cc(COC(=O)c3ccc(NC(=O)C(C)(C)C)cc3)nc2s1 -36.3%, Cc1cc2oc(C(=O)N(Cc3ccco3)Cc3ccccc3Cl)c(C)c2cc1C -21.5%, CCOC(=O)c1ccccc1NC(=O)c1cnc(N2CCOCC2)c2ccccc12 -20.8%, COc1ccc(C(=O)N(Cc2ccc(N(C)C)cc2)CC2CCCO2)cc1 (stereo unspecified) -1.27%, COc1cc(NC(=O)CSc2nc(-c3ccc(C(C)C)cc3)no2)cc(OC)c1 -86.5%, COc1ccc(NC(=O)CSc2cn(CCNC(=O)c3c(F)cccc3F)c3ccccc23)cc1 -32.6%, Cc1ccc(NC(=O)CSc2nc3ccc(NC(=O)CCc4ccccc4)cc3s2)cc1 -3.27%, CCN1CCN(Cc2c(O)ccc3c(=O)c(Oc4ccccc4C(C)C)c(C(F)(F)F)oc23)CC1 0%, CCCN1CCN(CCCNC(=O)Cn2nc(C)n3c(cc4c(OC)cccc43)c2=O)CC1 -1.24%, Cc1ccc(CNC(=O)c2cc3ccc4cccnc4c3[nH]2)cc1 18.1%, Cc1ccc(NC(=O)Cn2cnc3c2c(=O)n(C)c(=O)n3C)cc1C -5.87%, CCN(C(=O)Cn1c(=O)n(Cc2ccccc2)c(=O)c2c1c1cc(OC)ccc1n2C)c1ccccc1 -6.6%, COc1ccc(-c2noc(-c3ccc(NC4CCCC4)c([N+](=O)[O-])c3)n2)cc1OC -0.675%, Cc1ccccc1CNC(=O)c1ccc2nc(C(C)C)oc2c1 25%, COc1cc(Cl)c(C)cc1NC(c1ccccc1)c1nnc(-c2ccccc2Cl)o1 (stereo unspecified) -3.67%, CC(=O)Nc1ccc2nc(NC(=O)CS(=O)(=O)c3ccc(C)cc3)sc2c1 4.31%, COc1ccc(C2=Nc3ccc(OC(F)(F)F)cc3NC(c3cccnc3)=N2)cc1 -52.7%, Cc1ccc(C)c(N2CCN(S(=O)(=O)c3cn(C)c(C)n3)CC2)c1 -19.6%, COC(=O)C=CC(=O)OC -30.7%, COc1ccc(CNC(=O)C2CCN(S(=O)(=O)c3ccc4c(c3)CCCN4C(C)=O)CC2)cc1 -21.6%, COCc1cc(C)nc2sc3c(=O)n(-c4ccccc4C(F)(F)F)nnc3c12 9.41%, Cc1ccc(C)c(CSc2nnc3[nH]c(=O)cc(-c4ccccc4)n23)c1 5.09%, CCCn1cc(S(=O)(=O)c2cc(C)ccc2C)c(=O)c2cc(F)c(N3CCN(CC)CC3)cc21 -11.2%, CCOC(=O)c1c(S(=O)(=O)NCC(=O)NCc2ccccc2Cl)c(C)n(C)c1C -6.66%, Cc1cccc(NC(=O)C2CCN(S(=O)(=O)c3ccc4c(c3)CCCN4C(=O)C3CCC3)CC2)c1 -26.3%
